Measured values published in patent US8389512B2 (priority 2008, dated 2013).
The source gives many values for each of these; only a part stands here.

Assay: 24 hr in-vivo study: meloxicam plasma concentration and pharmacokinetics after oral (gavage) administration to male rats
Settings: 1 mg/kg oral
Excerpt: Male Sprague-Dawley rats, 250-300 g, received with a surgically implanted jugular catheter in place from (Harlan or Taconic Laboratories, USA). Animals were housed one per polycarbonate cage utilizing individual cage cards, with free access to food and water in accordance with NIH guidelines. Animals were quarantined at least 24 hrs after arrival prior to use and patency of the implanted catheter determined on the day of the test. Environmental controls for the animal room were set to maintain 18 to 26° C., a relative humidity of 30 to 70%, a minimum of 10 air changes/hour, and a 12-hour light/12-hour dark cycle. Rats historically have been used in safety evaluation and PK screening studies and are recommended by appropriate regulatory agencies. […] Each rat was weighed and the dose volume adjusted accordingly so that the effect of weight variability on results of study was eliminated and that each rat received 1 mg/kg dose.
Pharmacokinetic parameters were calculated from individual animal samples using appropriate software (PK Solutions 2.0, Summit Research Services, Montrose, Calif., USA).

Structure (SMILES)	meloxicam plasma concentration (N = 5, 0.0833 hour) [µg/mL]	meloxicam plasma concentration (N = 5, 0.75 hour) [µg/mL]	meloxicam plasma concentration (N = 5, 1 hour) [µg/mL]	meloxicam plasma concentration (N = 5, 2 hour) [µg/mL]	meloxicam plasma concentration (N = 5, 8 hour) [µg/mL]	meloxicam plasma concentration (N = 5, 12 hour) [µg/mL]	meloxicam plasma concentration (N = 5, 24 hour) [µg/mL]	meloxicam plasma concentration (N = 5, 0.5 hour) [µg/mL]
Cc1cnc(NC(=O)C2=C(O)c3ccccc3S(=O)(=O)N2C)s1.O=C(O)/C=C\C(=O)O [Cocrystal 21, Meloxicam:Maleic Acid Cocrystal (1:1)]	0.3	0.78	0.86	1.31	1.34	1.11	0.7	–
Cc1cnc(NC(=O)C2=C(O)c3ccccc3S(=O)(=O)N2C)s1.O=C(O)c1ccc2ccccc2c1O [Cocrystal 76, Meloxicam: 1-Hydroxy-2-Naphthoic Acid Cocrystal (1:1)]	0.34	2.74	3.04	3.94	3.33	2.55	1.48	–
Cc1cnc(NC(=O)C2=C(O)c3ccccc3S(=O)(=O)N2C)s1.O=C(O)c1ccccc1O [Cocrystal 88, Meloxicam:Salicylic Acid Cocrystal Form III (1:1)]	0.145	1.0625	1.2825	2.06	1.7	1.1425	0.5	–
Cc1cnc(NC(=O)C2=C(O)c3ccccc3S(=O)(=O)N2C)s1.Cc1cnc(NC(=O)C2=C(O)c3ccccc3S(=O)(=O)N2C)s1.O=C(O)CCC(=O)O [Cocrystal 144, Meloxicam:Succinic Acid Cocrystal (2:1)]	0.03	0.6	0.96	1.5	1.6	1.26	0.58	0.45
